Data taken from publication PMC12803952.
Numbering of substitutions follows the chain as printed. No constants are given. Whether binding was seen depends on the method and setting. In cells and extracts the contact can be indirect. Some entries that bind do so weakly or less than the wild type. For some assays here: Where a sequence is shown, tags or fusion partners need not be part of it.

How the values were obtained:
[1] = molecular target: CK1α (human (endogenous in U2OS)), P48729; assay: co-IP; anti-CK1α antibody-coupled Sepharose beads, IP of endogenous CK1α from clarified lysates of mitotic (STLC 5 μM, 16 h) U2OS cells: WT, or HMMR−/− restored with HMMR-GFP or ΔE4-GFP; lysis buffer 50 mM Tris-HCl pH 7.5, 150 mM NaCl, 1 mM EDTA, 1% Triton-X; overnight at 4°C; western blot; conditions: remark: other sources report otherwise
[2] = molecular target: CK1α (human (endogenous in U2OS)) (UniProt P48729); assay: condition: only asynchronous cells (no mitotic arrest); co-IP; as a1, but asynchronous WT U2OS cells (no STLC arrest)
[3] = molecular target: CK1α (human (endogenous in U2OS)) (UniProt P48729); assay: co-IP; as a1, but HMMR−/− U2OS cells (CRISPR knockout, not restored), asynchronous or STLC-arrested
HMMR-GFP (human) = molecular target: T1, HMMR-GFP (human) (UniProt O75330); assay: co-IP; GFP nanobody on Sepharose, IP of HMMR-GFP variants restored in HMMR−/− U2OS cells, asynchronous or mitotic (STLC 5 μM, 16 h); western blot
T1 sequence: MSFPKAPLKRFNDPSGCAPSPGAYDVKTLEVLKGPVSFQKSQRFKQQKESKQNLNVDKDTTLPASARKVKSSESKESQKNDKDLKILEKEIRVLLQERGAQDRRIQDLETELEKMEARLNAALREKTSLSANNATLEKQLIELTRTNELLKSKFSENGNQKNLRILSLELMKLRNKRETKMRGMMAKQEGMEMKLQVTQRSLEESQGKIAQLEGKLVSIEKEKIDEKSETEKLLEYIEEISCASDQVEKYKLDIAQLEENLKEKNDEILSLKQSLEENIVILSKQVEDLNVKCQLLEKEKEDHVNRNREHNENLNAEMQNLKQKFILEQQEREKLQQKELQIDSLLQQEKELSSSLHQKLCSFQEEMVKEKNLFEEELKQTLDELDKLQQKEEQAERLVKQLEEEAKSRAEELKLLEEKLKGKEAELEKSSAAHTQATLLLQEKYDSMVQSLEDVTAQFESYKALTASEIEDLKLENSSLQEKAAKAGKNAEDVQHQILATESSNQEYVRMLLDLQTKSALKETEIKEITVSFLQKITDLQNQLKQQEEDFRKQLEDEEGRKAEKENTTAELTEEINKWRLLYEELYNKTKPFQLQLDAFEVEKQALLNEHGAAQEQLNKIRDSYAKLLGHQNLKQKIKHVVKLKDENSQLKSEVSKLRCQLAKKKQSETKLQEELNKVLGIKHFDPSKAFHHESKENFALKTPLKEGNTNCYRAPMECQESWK

SACK1D^1-514-GFP (human) = molecular target: T2, SACK1D^1-514-GFP (human) (UniProt Q9H4H8); assay: co-IP; GFP nanobody on Sepharose, IP of SACK1D-GFP variants from lysates of SACK1D−/− U2OS cells, asynchronous or mitotic (STLC 5 μM, 16 h); overnight at 4°C; western blot
T2 sequence: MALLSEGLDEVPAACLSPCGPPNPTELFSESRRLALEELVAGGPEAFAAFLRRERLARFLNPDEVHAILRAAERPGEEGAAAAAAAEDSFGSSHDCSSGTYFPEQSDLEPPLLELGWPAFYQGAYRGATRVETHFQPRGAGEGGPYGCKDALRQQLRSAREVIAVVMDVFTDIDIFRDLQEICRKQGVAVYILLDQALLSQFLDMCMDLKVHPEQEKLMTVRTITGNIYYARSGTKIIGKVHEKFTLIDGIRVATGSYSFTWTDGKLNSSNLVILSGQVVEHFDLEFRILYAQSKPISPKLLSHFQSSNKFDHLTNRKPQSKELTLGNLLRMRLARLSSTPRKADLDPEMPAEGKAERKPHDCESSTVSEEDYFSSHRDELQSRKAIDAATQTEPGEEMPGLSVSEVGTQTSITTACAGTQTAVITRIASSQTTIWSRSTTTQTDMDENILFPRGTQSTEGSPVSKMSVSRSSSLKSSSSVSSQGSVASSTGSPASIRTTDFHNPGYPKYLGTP

[4] = molecular target: T3, SACK1D^M545A,L546A,M548A,L549A-GFP (human) (UniProt Q9H4H8); assay: as above
T3 sequence: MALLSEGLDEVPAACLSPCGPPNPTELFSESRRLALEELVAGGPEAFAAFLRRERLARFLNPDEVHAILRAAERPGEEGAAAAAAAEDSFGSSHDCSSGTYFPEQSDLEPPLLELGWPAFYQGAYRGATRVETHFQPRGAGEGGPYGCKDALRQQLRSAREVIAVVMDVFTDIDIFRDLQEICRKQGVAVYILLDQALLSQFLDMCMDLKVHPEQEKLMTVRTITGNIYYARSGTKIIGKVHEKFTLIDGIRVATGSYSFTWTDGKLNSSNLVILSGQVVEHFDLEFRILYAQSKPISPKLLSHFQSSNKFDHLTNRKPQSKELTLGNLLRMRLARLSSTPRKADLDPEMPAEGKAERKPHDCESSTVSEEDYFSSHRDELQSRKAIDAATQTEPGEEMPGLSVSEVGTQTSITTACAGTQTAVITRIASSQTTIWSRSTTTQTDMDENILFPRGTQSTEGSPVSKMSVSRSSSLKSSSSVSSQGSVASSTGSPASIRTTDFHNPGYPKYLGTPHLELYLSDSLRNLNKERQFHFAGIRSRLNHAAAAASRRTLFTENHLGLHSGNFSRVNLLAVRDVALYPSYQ

SACK1D-GFP (human) = molecular target: T4, SACK1D-GFP (human) (UniProt Q9H4H8); assay: as above
T4 sequence: T3 sequence with A545M, A546L, A548M, A549L

[5] = molecular target: T5, SACK1D-GFP (human), Q9H4H8; assay: as above; conditions: remark: other sources report otherwise
T5 chain: T3 sequence with A545M, A546L, A548M, A549L

B1: Scaffold Anchor of CK1 (SACK1) domain-containing protein D, Q9H4H8 1-585 (protein)
chain: T3 sequence with A545M, A546L, A548M, A549L
binding [1]: binds

B2: Scaffold Anchor of CK1 (SACK1) domain-containing protein D (protein, UniProt Q9H4H8 1-585)
chain: T3 sequence with A545M, A546L, A548M, A549L
binding [2]: no binding
binding [3]: no binding (condition: in HMMR−/− U2OS cells)
binding (HMMR-GFP (human)): binds

B3: hyaluronan-mediated motility receptor (protein, UniProt O75330 1-724)
chain: T1 sequence
binding (SACK1D^1-514-GFP (human)): no binding
binding [4]: no binding
binding (SACK1D-GFP (human)): binds

B4: CK1α, P48729 1-337 (enzyme)
chain: MASSSGSKAEFIVGGKYKLVRKIGSGSFGDIYLAINITNGEEVAVKLESQKARHPQLLYESKLYKILQGGVGIPHIRWYGQEKDYNVLVMDLLGPSLEDLFNFCSRRFTMKTVLMLADQMISRIEYVHTKNFIHRDIKPDNFLMGIGRHCNKLFLIDFGLAKKYRDNRTRQHIPYREDKNLTGTARYASINAHLGIEQSRRDDMESLGYVLMYFNRTSLPWQGLKAATKKQKYEKISEKKMSTPVEVLCKGFPAEFAMYLNYCRGLRFEEAPDYMYLRQLFRILFRTLNHQYDYTFDWTMLKQKAAQQAASSSGQGQQAQTPTGKQTDKTKSNMKGF
binding [5]: binds
